This passage reports survival results from PubChem BioAssay AID463173 (ICCB-Longwood Screening Facility, Harvard Medical School, 2010).

Screen size: about 52,000 compounds; about 4,300 (8.3%) were called active. Rule as the data show it: active = survival mostly below about 52% (no sharp cut-off); inactive = mostly above about 56%. The list shows a part of the results.

In this test the test system is DeltatarO mutant. The test is described as follows: S. aureus survival, RN4220 and DeltatarO strains – OD600, teichoic acid synthesis inhibitors, primary screen (AID 463173). Conditions: S. aureus RN4220 wild type/DeltatarO growth, OD600, 18 h, stronger effect = lower value, screened at 18.75 µg/mL (by protocol).
On to `Cc1ccc(C)c(CN2C(=O)c3ccccc3S(=O)(=O)c3ccc(C(=O)N4CCCC4)cc32)c1`, for which the survival is inactive: 57%.

For the molecule `CCc1ccc(NC(=O)c2ccc3oc(=O)n(Cc4ccccc4)c3c2)cc1`, the survival was active: 6%.

With `Nc1c(-c2nc(-c3cccs3)no2)nnn1-c1cccc(F)c1`, the survival was inactive: 75%.

As for `CCN(c1ncnc2c1cnn2-c1cc(Cl)ccc1C)C1CCCCC1`, the survival was inactive: 73%.

On to `Cc1ccc(O)c(NC(=O)c2noc3c2CCCCC3)c1`, for which the survival is inactive: 59%.

With `COc1cccc(-n2cc(C(=O)Oc3cccc(C(F)(F)F)c3)c3ccccc3c2=O)c1`, the survival is inactive: 107%.

With `CC(=O)N1c2ccccc2CC1C(=O)N1CCN(c2cccc(Cl)c2)CC1` (configuration not stated), the survival is inactive: 85%.

Turning to `Cc1ccc(-c2cn3c(n2)sc2cc(C(=O)NCc4cccs4)ccc23)cc1`, the survival is inactive: 78%.

Regarding `Oc1cccc(N=Cc2c[nH]c3ccccc23)c1`, the survival is inactive: 106%.

As for `CCCCNC(=O)Cn1c(=O)cc(C)c2c(C)nn(-c3ccc(CC)cc3)c21`, the survival was inactive: 55%.

As for `CCC1CN(C(=O)N2CCC(C(=O)NCCc3ccc(C)cc3)CC2)c2ccccc2O1` (configuration not stated), the survival is inactive: 79%.

As for `O=C(CCc1nnc2n(Cc3ccccc3Cl)c(=O)c3ccccc3n12)Nc1ccc(F)c(F)c1`, the survival was inactive: 92%.

Take `CCOCCCNC(=O)CCC(=O)NNc1nc2ccccc2c2nc(-c3ccccc3)nn12`: the survival was inactive: 83%.

`Cc1oc(-c2ccccc2)nc1CSc1nnc(C)n2c1cc1sccc12`: the survival was inactive: 68%.

Take `CCc1c(C)nc2c(OC)cccc2c1Cl`: the survival is inactive: 92%.

For `CCOC(=O)CSc1nc2c(sc3ccccc32)c(=O)n1Cc1ccc(C)cc1`, the survival is inactive: 96%.

For the molecule `CC(=O)NCCNc1nc2c(-c3ccc(C)cc3)nnn2c2ccccc12`, the survival was inactive: 79%.

In the case of `CCc1sc(Nc2ccc(C)cc2Br)nc1-c1cc2cccc(OC)c2oc1=O`, the survival is inactive: 89%.

Turning to `CCCN(CCC)C(=O)Cn1c(=O)n(-c2ccc(C)cc2)c(=O)c2ccc(C(=O)NCc3ccccc3Cl)cc21`, the survival is inactive: 80%.

For the molecule `CNC(=O)C1CCN(Cc2cc3ccccc3n2Cc2ccccc2C)CC1`, the survival is inactive: 78%.

Take `COCCNC(=O)C(=O)NCC(c1cccnc1)N1CCN(c2ccccc2OC)CC1` (configuration not stated): the survival was inactive: 64%.

Regarding `Cc1ccc(CSc2ccc(-c3cccs3)nn2)cc1`, the survival is inactive: 89%.

On to `O=C(Cn1ncc2c3ccccc3n(Cc3ccccc3F)c2c1=O)NC1CCCCCC1`, for which the survival is inactive: 84%.

For the molecule `O=C(NCc1ccccc1Cl)c1cc2c(s1)-c1ccccc1SC2`, the survival is inactive: 65%.

Regarding `CC(C)(C)NC(=O)c1cnn(-c2ccccc2)c1C1CCN(C(=O)OC(C)(C)C)CC1`, the survival is inactive: 78%.

Turning to `O=S(=O)(Nc1cccc(-c2ccc(N3CCCCCC3)nn2)c1)c1ccccc1F`, the survival was inactive: 90%.

For `CC1(C)CC(=O)C(C=NCCCN2CCCC2=O)=C(O)C1`, the survival was inactive: 94%.

With `CCC(=O)Nc1ccccc1-c1nc2ccccc2n(CC(=O)c2ccc(C)c(C)c2)c1=O`, the survival is active: 33%.

In the case of `Cc1ccccc1-c1nnc(CN2CCN(c3cccc(C)c3C)CC2)o1`, the survival was inactive: 61%.

For the molecule `Brc1ccc(-c2nnc3sc(CN4CCCCC4)cn23)cc1`, the survival is inactive: 75%.

On to `COc1cccc(NC(=O)CSc2nc3c([nH]c4ccccc43)c(=O)n2-c2ccccc2)c1`, for which the survival is inactive: 76%.

Turning to `CCOc1ccccc1NC(=O)CSc1nnc(N)s1`, the survival is inactive: 104%.

As to `Cc1ccc(NC(=O)CSc2nnc(C)n3c2cc2sccc23)c(C)c1`, the survival was inactive: 71%.

As for `CCCN1C(=O)c2[nH]nc(-c3ccccc3O)c2C1c1cccc(OCc2ccccc2)c1` (configuration not stated), the survival is active: 8%.

Consider `COc1ccc(OC)c(CNC(=O)c2cc3cc4ccc(OC)cc4nc3o2)c1`, for which the survival was inactive: 83%.

Turning to `Cc1ccc(C(=O)/C=C/c2cn(CC(O)CN3CCc4ccccc43)c3ccccc23)cc1` (configuration not stated), the survival was inactive: 73%.

With `Cc1cc(-n2c(C)nc3ccccc3c2=O)ccc1NC(=O)c1ccc(C)c([N+](=O)[O-])c1`, the survival was active: 37%.

Take `Cc1ccc(CN(C(=O)COc2ccc(Cl)c(C)c2)c2ccccn2)o1`: the survival is inactive: 52%.

In the case of `CCc1nc2sc3c(N4CCC(C)CC4)ncnc3c2c2c1CCCC2`, the survival was inactive: 134%.

For the molecule `Cc1oc2ncn(C)c(=O)c2c1C(=O)Nc1ccccn1`, the survival is inactive: 102%.

As for `O=C(CN1C(=O)COc2ccc(S(=O)(=O)N3CCOCC3)cc21)N1CCN(c2cccc(C(F)(F)F)c2)CC1`, the survival was inactive: 93%.

As to `COc1cc(C2c3c(-c4c(C)cc(C)cc4O)n[nH]c3C(=O)N2CCO)cc(OC)c1OC` (configuration not stated), the survival is inactive: 69%.

Turning to `Cc1nc2nc(SCc3c(F)cccc3Cl)nn2c(C)c1Cc1ccccc1`, the survival is inactive: 66%.

As for `CN(C)S(=O)(=O)c1ccc(C(=O)NCCS(=O)(=O)N2CCN(c3ccccc3)CC2)cc1`, the survival was inactive: 73%.

In the case of `Cc1ccc(-c2cc(-c3ccc4c(c3)NC(=O)CO4)nc3c2COc2ccc(C)cc2-3)cc1`, the survival was inactive: 96%.

As to `COc1ccc(NC(=O)CCN2CCN(CCO)CC2)c(OC)c1`, the survival was inactive: 70%.

Take `O=C(Nc1ccc2nc(SCc3ccccc3)sc2c1)c1cccc(F)c1`: the survival is inactive: 91%.

Turning to `COc1ccc(OCCSc2nc(C)c(Cc3ccccc3)c(=O)[nH]2)cc1`, the survival was inactive: 58%.

On to `COc1ccc(Oc2nc3c(c(=O)n(C)c(=O)n3C)n2Cc2ccccc2Cl)cc1`, for which the survival was inactive: 54%.

Consider `CCN(CC)C(=O)CSc1nnc(-c2ccc(OC)cc2)n1CCOC`, for which the survival was inactive: 65%.

Regarding `COc1ccccc1Cn1cc(C(=O)c2ccc(Cl)cc2)c(=O)c2cc3c(cc21)OCCO3`, the survival was inactive: 83%.

`CCOc1cc2sc(N3CCC(C(=O)Nc4ccccc4Cl)CC3)nc2cc1Br`: the survival is inactive: 77%.

As for `Cc1ccc(CN2CCC(CNC(=O)c3cc4ccc5cccnc5c4[nH]3)CC2)cc1`, the survival is inactive: 89%.

Regarding `O=C(Nn1cnnc1)c1cccc(C(=O)Nn2cnnc2)c1`, the survival is inactive: 91%.

Turning to `Cc1cc(S(=O)(=O)C(CNC(=O)COc2ccccc2)c2cccs2)ccc1F` (configuration not stated), the survival is inactive: 107%.

Turning to `Cc1ccc(-c2nn(CC(=O)NC3CCCC3)c3c2cnc2ccc(F)cc23)cc1C`, the survival is inactive: 93%.

Consider `CCCCC(CC)CNC(=O)c1ccc2c(=O)n(CCOC)c(=O)[nH]c2c1` (configuration not stated), for which the survival was inactive: 130%.

With `CC(=O)c1cccc(S(=O)(=O)N2CCN(c3ccccc3F)CC2)c1`, the survival was inactive: 82%.

As for `CC(C)(C)c1ccc(C(=O)NCC(c2cccs2)S(=O)(=O)c2ccc(F)cc2)cc1` (configuration not stated), the survival was inactive: 90%.

For `Cc1ccc(N(CC(=O)NCC(C)c2ccccc2)S(=O)(=O)N(C)C)cc1` (configuration not stated), the survival was inactive: 75%.

`CCc1sc(Nc2ccc(Cl)cc2)nc1-c1cc2cccc(OC)c2oc1=O`: the survival is inactive: 70%.

With `Cc1cc(OCC(=O)Nc2cc(-c3nc4ccccc4[nH]3)ccc2C)ccc1Cl`, the survival is inactive: 96%.

In the case of `CC(C(=O)Nc1ccc(F)c(Cl)c1)N1Cc2ccccc2C1=O` (configuration not stated), the survival was active: 8%.

Take `COc1ccc(-c2noc(N3CCN(c4cccc(Cl)c4)CC3)n2)cc1OC`: the survival is inactive: 83%.

Consider `Cc1ccccc1C(=O)Nc1nnc(SCc2cc(=O)n3ccccc3n2)s1`, for which the survival was inactive: 61%.

Consider `CCOc1ccc(C(=O)CSc2nnc3cc(C)c4ccccc4n23)cc1`, for which the survival is inactive: 72%.

With `CCOC(=O)c1cc2occc2n1C(C)C(=O)OCC` (configuration not stated), the survival is inactive: 80%.

In the case of `COc1ccccc1CNC(=O)COc1cc(=O)n(C)c2ccccc12`, the survival was inactive: 62%.

Consider `CCOc1cc(C(=O)Nc2nnc3n2CCS3)cc(OCC)c1OCC`, for which the survival was inactive: 69%.

As to `COc1cc(/C=C(\C#N)c2nc3ccc(C)cc3[nH]2)ccc1OC(C)C`, the survival was active: 46%.

Consider `O=C(NCc1cccs1)c1cc2sccc2n1Cc1ccccc1`, for which the survival is inactive: 76%.

As to `CCc1ccc(S(=O)(=O)c2c[nH]c3cc(OC)c(OC)cc3c2=O)cc1`, the survival is inactive: 88%.

Regarding `COc1ccc2cc3cc(C(=O)NCCc4ccccc4)sc3nc2c1Cl`, the survival was inactive: 69%.

For `Cc1cn2c(=O)cc(COC(=O)c3cccc(NC(=O)COc4ccc(Cl)cc4)c3)nc2s1`, the survival was inactive: 102%.

`COC(=O)c1c(NC(=O)COc2ccccc2Cl)sc2c1CCC(C(C)(C)C)C2` (configuration not stated): the survival was inactive: 131%.

`Cc1ccc(CCNC(=O)c2cc3sccc3n2Cc2ccc(F)cc2)cc1`: the survival was inactive: 87%.

`Cc1ccc(C(=O)c2cn(Cc3ccccc3F)c3cc4c(cc3c2=O)OCO4)cc1`: the survival is inactive: 75%.

As to `COC(=O)c1ccc(Cl)cc1NC(=O)N1CCC(CN2CCCC2)CC1`, the survival is inactive: 84%.

For the molecule `CCOC(=O)c1sc(N2N=C(C)CC2=O)nc1C`, the survival is inactive: 76%.

As for `N#C/C(=C\c1ccc(Br)cc1)c1nc(-c2cc3cc(Br)ccc3oc2=O)cs1`, the survival was inactive: 79%.

For `COc1cc(OC)c(NC(=O)CCn2cccn2)cc1Cl`, the survival was inactive: 79%.

For `CN(Cc1ccccc1)C(C(=O)NC1CCCCC1)c1ccc(Cl)cc1` (configuration not stated), the survival is active: 37%.

As for `Fc1ccc(C(Nc2ccc(Cl)c(C(F)(F)F)c2)c2nnc(-c3ccccc3)o2)cc1` (configuration not stated), the survival is inactive: 71%.

As to `Cc1ccccc1NC(=O)Cn1c(=O)n(-c2ccc(CC(=O)NCC3CCCO3)cc2)c(=O)c2ccccc21` (configuration not stated), the survival was inactive: 106%.

As for `COc1cccc(NC(=O)C(=O)NCC(c2ccc3c(c2)OCO3)N2CCOCC2)c1` (configuration not stated), the survival was inactive: 49%.

For `O=C(Cn1c(=O)n(-c2ccc(Cl)cc2)c(=O)c2sc3ccccc3c21)NC1CCCCC1`, the survival is inactive: 96%.

Consider `COc1ccc(-c2cc(C(F)(F)F)nc(NCc3ccccc3)n2)cc1`, for which the survival is active: -4%.

`CCn1nnc(NC(=O)COc2ccccc2)n1`: the survival is inactive: 90%.

As to `CCOc1cc(C(C#N)N2CCCCC2)ccc1OC` (configuration not stated), the survival was inactive: 74%.

As for `CCS(=O)(=O)c1nc2ccccc2n1CC(=O)Nc1ccccc1C(=O)OC`, the survival is inactive: 55%.

Regarding `C1CCN(c2nc(N3CCCC3)nc(N3CCNCC3)n2)C1`, the survival is inactive: 97%.

Regarding `CCc1ccc(C(=O)c2c(N)c(-c3nc(-c4ccc5c(c4)OCO5)cs3)c3ccccn23)cc1`, the survival was inactive: 106%.
